The results in this text go back to PubChem BioAssay AID1745853 (National Center for Advancing Translational Sciences (NCATS), 2022).

What all share (experiment): Primary Screen for Target Class Profiling of Small Molecule Inhibitors of Methyltransferases
Assay [1] has as its target Glycine N-methyltransferase (Homo sapiens) (UniProt Q14749). The settings on record: purified enzyme, MTase-Glo SAH luminescence; measured here: GNMT inhibition; at 40 µM; stronger effect = lower value. An outline of the steps: (§1)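 Each enzyme was reacted with SAM and its substrate, with compounds tested once at 40 uM; SAH formed was read by MTase-Glo luminescence.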
Assay [2] addresses Guanidinoacetate N-methyltransferase (Homo sapiens) (UniProt Q14353). As to conditions: purified enzyme, MTase-Glo SAH luminescence; measured here: GAMT inhibition; at 40 µM; stronger effect = lower value. An outline of the steps:
as §1

Assay [3] has as its target Histamine N-methyltransferase (Homo sapiens) (UniProt P50135). The settings on record: purified enzyme, MTase-Glo SAH luminescence; measured here: HNMT inhibition; at 40 µM; stronger effect = lower value. An outline of the steps: as §1
Assay [4] deals with Nicotinamide N-methyltransferase (Homo sapiens) (UniProt P40261). As to conditions: purified enzyme, MTase-Glo SAH luminescence; measured here: NNMT inhibition; at 40 µM; stronger effect = lower value. In a few lines:
as §1

Assay [5] addresses Phenylethanolamine N-methyltransferase (Homo sapiens) (UniProt P11086). The settings on record: purified enzyme, MTase-Glo SAH luminescence; measured here: PNMT inhibition; at 40 µM; stronger effect = lower value. In a few lines: as §1

Some of the results follow. The main result of the screen is listed elsewhere. These columns were measured beside it and carry no call. Peptide text beside a SMILES is read from it.
% is set by controls: 0 for no effect and ±100 for the full control effect.

Take `O=C(Nc1ccccc1-c1cn2c(CN3CCNCC3)csc2n1)c1ccc2ccccc2n1`: the activity change, negative = inhibition was -18% in assay [1]; -6.76% in assay [2]; -29.6% in assay [3]; -20.6% in assay [4]; -22.2% in assay [5].

`CCOC(=O)c1cc2n(n1)CC(C)(C(=O)NCCCOC)N(c1ccc(OCC)cc1)C2=O` (configuration not stated): the activity change, negative = inhibition came out at 4.98% in assay [1]; 2.23% in assay [2]; 8.07% in assay [3]; 3.52% in assay [4]; 3.54% in assay [5].

Turning to `CCOC(=O)c1cc2n(n1)CC(C)(C(=O)NC1CCCCCC1)N(c1cccc(F)c1)C2=O` (configuration not stated), the activity change, negative = inhibition in assay [1] was 4.41%; in assay [2] it was 4.63%; in assay [3], -5.37%; in assay [4], 1.18%; in assay [5] it was 2.25%.

Consider `NC(=O)NCC(=O)N1CCc2cc(S(=O)(=O)NCc3cccs3)ccc2C1`, for which the activity change, negative = inhibition in assay [1] is -8.59%; in assay [2] it was -13.6%; in assay [3], -3.01%; in assay [4] it was -11.3%; in assay [5] it was -7.72%.

Consider `O=C(NC[C@H]1OC[C@@H](NCc2cccnc2)[C@@H]1O)N1CCOCC1`, for which the activity change, negative = inhibition in assay [1] was 2.53%; in assay [2] it was 0.755%; in assay [3], 2.75%; in assay [4], -2.17%; in assay [5], 1.22%.

Consider `CN(Cc1ccc(OC(F)(F)F)cc1)Cc1cccc(C(F)(F)F)c1`, for which the activity change, negative = inhibition was -1.06% in assay [1]; -0.792% in assay [2]; 0.777% in assay [3]; -3.7% in assay [4]; -2% in assay [5].

On to `C=C(C)[C@@H]1CC[C@]2(CO)CC[C@]3(C)[C@H](CC[C@@H]4[C@@]5(C)CC[C@H](O)C(C)(C)[C@@H]5CC[C@]43C)[C@@H]12`, for which the activity change, negative = inhibition is 6.91% in assay [1]; 3.44% in assay [2]; 11.3% in assay [3]; -12.1% in assay [4]; 3.13% in assay [5].

As to `COc1ccccc1CN1C(=O)c2cc3oc(C)cc3n2CC1(C)C(=O)NC1CCCCC1` (configuration not stated), the activity change, negative = inhibition was 0.903% in assay [1]; 0% in assay [2]; -2.33% in assay [3]; -0.514% in assay [4]; -2.44% in assay [5].

`CCCN(CCC)CCc1cccc2c1CC(=O)N2`: the activity change, negative = inhibition in assay [1] is -5.63%; in assay [2], 0.672%; in assay [3], -23.5%; in assay [4] it was -12.2%; in assay [5] it was -7.39%.

Consider `CCC(C(=O)NC)n1ccc2cc(S(=O)(=O)N3CCCCC3)ccc21` (configuration not stated), for which the activity change, negative = inhibition in assay [1] was -2.23%; in assay [2], 4.97%; in assay [3], -1.14%; in assay [4] it was 3.66%; in assay [5], 2.12%.

Regarding `N=C(N)c1ccc(N)cc1`, the activity change, negative = inhibition in assay [1] was -7.13%; in assay [2] it was 5.04%; in assay [3], -17.2%; in assay [4], -14.7%; in assay [5], 5.36%.

Turning to `C=CC1(C)C=C2C(O)CC3C(C)(C(=O)O)CCCC3(C)C2CC1` (configuration not stated), the activity change, negative = inhibition was -5.91% in assay [1]; -5.9% in assay [2]; -0.113% in assay [3]; -17.8% in assay [4]; -3.35% in assay [5].

Regarding `Cc1cc2c(cc3n2CC(C)(C(=O)NC2CCCCCCC2)N(C2CCCCC2)C3=O)o1` (configuration not stated), the activity change, negative = inhibition in assay [1] is 0.648%; in assay [2], -0.931%; in assay [3] it was 6.79%; in assay [4] it was 1.73%; in assay [5], 2.32%.

As to `CCCN1C(=O)c2c(C(=O)Nc3cc(C)ccc3C)ncn2CC1(C)C(=O)NCc1ccc(OC)cc1` (configuration not stated), the activity change, negative = inhibition in assay [1] is -2.79%; in assay [2], 0%; in assay [3], 0.451%; in assay [4], 6.59%; in assay [5], 5.38%.

In the case of `CCC(C)NC(=O)c1ccc2c(=O)n(C(C)C)c3nn(CC(=O)Nc4ccc(C)cc4C)c(=O)n3c2c1` (configuration not stated), the activity change, negative = inhibition in assay [1] was 4.52%; in assay [2], 0%; in assay [3], 4.47%; in assay [4], -2.68%; in assay [5] it was 2.88%.

As for `CCC1c2ccc(C)n2CCN1C(=O)Nc1cc(OC)cc(OC)c1` (configuration not stated), the activity change, negative = inhibition in assay [1] is -11.6%; in assay [2], 3.63%; in assay [3], -12.9%; in assay [4] it was -6.93%; in assay [5], -0.221%.

As to `CCOCCCNC(=O)c1cc2n(n1)CC(C)(C(=O)NC1CCCC1)N(C)C2=O` (configuration not stated), the activity change, negative = inhibition in assay [1] is 0.394%; in assay [2] it was 0.604%; in assay [3], -1.89%; in assay [4], 0.275%; in assay [5] it was 0.011%.

With `C[C@@H](O)[C@H](N)C(=O)N1CCC[C@H]1C(=O)N1CCC[C@H]1C(=O)N[C@H](C(N)=O)[C@@H](C)O` (H-TPPT-NH2), the activity change, negative = inhibition in assay [1] was 1.37%; in assay [2], -1.19%; in assay [3] it was 16%; in assay [4] it was -6.5%; in assay [5], 6.11%.

For `COc1ccc(S(=O)(=O)N2CCC(OCCOCc3ccccc3)CC2)cc1`, the activity change, negative = inhibition in assay [1] turned out to be 3.87%; in assay [2], 0%; in assay [3] it was 14.8%; in assay [4], 4.65%; in assay [5], 7.99%.

As to `COc1cccc(CN2C(=O)c3cc(-c4cccs4)nn3CC2(C)C(=O)NC2CCCCC2)c1` (configuration not stated), the activity change, negative = inhibition is -7.75% in assay [1]; 3.99% in assay [2]; -2.52% in assay [3]; -1.68% in assay [4]; -4.27% in assay [5].

For the compound `CCn1nc(CNC(=O)Cc2cccc(F)c2)c2ccccc21`, the activity change, negative = inhibition in assay [1] was 3.61%; in assay [2], 0.99%; in assay [3], -1.58%; in assay [4] it was 0.508%; in assay [5] it was 1.46%.

For the compound `Cc1ccc(C)c(N2C(=O)c3cc4sccc4n3CC2(C)C(=O)NC2CCCCCCC2)c1` (configuration not stated), the activity change, negative = inhibition in assay [1] was determined as 0.461%; in assay [2], 4.4%; in assay [3], 3.84%; in assay [4], 8.13%; in assay [5] it was 0.432%.

On to `O=C(O)C[C@@H]1CCN(C(=O)Nc2ccc(C(F)(F)F)cc2)C[C@@H]1CCN1C[C@@H]2C[C@H](C1)c1cccc(=O)n1C2`, for which the activity change, negative = inhibition is -2.62% in assay [1]; 0.959% in assay [2]; -0.725% in assay [3]; 5.97% in assay [4]; -0.153% in assay [5].

For the compound `Cc1cccc2c1O[C@H]1[C@H](CO)CN([S+](=O)([O-])c3cccs3)[C@@H]21`, the activity change, negative = inhibition in assay [1] is -14%; in assay [2], 0.085%; in assay [3], 1.51%; in assay [4], -4.29%; in assay [5], 0.142%.

Take `COc1ccc2nc(-c3cc(OC)c(OC)c(OC)c3)cc(C(=O)NCC(=O)Nc3ccc(C(C)=O)cc3)c2c1`: the activity change, negative = inhibition in assay [1] was -6.74%; in assay [2], -4.1%; in assay [3], -9.69%; in assay [4], -15%; in assay [5] it was -10%.

On to `CN(C(=O)CC(c1ccccc1)c1ccc(Cl)cc1)C1CCOCC1` (configuration not stated), for which the activity change, negative = inhibition is -0.519% in assay [1]; -0.307% in assay [2]; 0.342% in assay [3]; -0.467% in assay [4]; 0.05% in assay [5].

Take `CN1CCC(Nc2nc(Nc3ccc(Oc4ccccc4)cc3)c3c(=O)[nH]cc(Br)c3n2)CC1`: the activity change, negative = inhibition in assay [1] was -4.72%; in assay [2] it was -4.36%; in assay [3], -49.6%; in assay [4] it was -15.3%; in assay [5] it was -17.1%.

As for `Cc1ccc(CN2C(=O)c3nc4ccccc4n3CC2(C)C(=O)NC2CCCCCC2)cc1` (configuration not stated), the activity change, negative = inhibition in assay [1] is -5.51%; in assay [2], 1.54%; in assay [3], 0.518%; in assay [4], -7.46%; in assay [5], -2.52%.

With `CN1C(=O)c2cc3ccccc3n2CC1(C)C(=O)NCC(=O)NCc1ccc(Cl)cc1` (configuration not stated), the activity change, negative = inhibition stood at 1.99% in assay [1]; 1.7% in assay [2]; 13.8% in assay [3]; 2.05% in assay [4]; 6.73% in assay [5].

With `CCC(C)NC(=O)Cn1nc2n(CC(C)C)c(=O)c3ccc(C(=O)NC(C)C)cc3n2c1=O` (configuration not stated), the activity change, negative = inhibition in assay [1] was 0.607%; in assay [2], -0.122%; in assay [3], 0.679%; in assay [4], -7.8%; in assay [5], -4.89%.

As to `NC(=O)[C@@H](Cc1c[nH]c2ccccc12)NC(=O)[C@@H]1C[C@@H](NS(=O)(=O)c2cccs2)CCN1C(=O)[C@@H](O)[C@H](O)C(=O)O`, the activity change, negative = inhibition was -4.96% in assay [1]; -7.49% in assay [2]; -2.39% in assay [3]; -12% in assay [4]; -17.8% in assay [5].

Turning to `O=C(NCCc1nccs1)c1cn(CCN2CCNCC2)nn1`, the activity change, negative = inhibition in assay [1] is -3.76%; in assay [2] it was 3.28%; in assay [3], -5.67%; in assay [4], 1.01%; in assay [5], 12%.

`CC1CCC(NC(=O)C2(C)Cn3c(ccc3-c3ccco3)C(=O)N2Cc2ccccc2F)CC1` (configuration not stated): the activity change, negative = inhibition in assay [1] is -5.55%; in assay [2], 3.67%; in assay [3] it was -2.3%; in assay [4], -15.6%; in assay [5] it was -2.13%.

Consider `COc1cccc(COC2CN(C(=O)CCn3nccc3C)CC(=O)N(Cc3ccccn3)C2)c1` (configuration not stated), for which the activity change, negative = inhibition in assay [1] was -4.53%; in assay [2], -13.7%; in assay [3] it was -2.66%; in assay [4], -10.8%; in assay [5], -2.44%.

On to `Cc1ccccc1CSc1nnc2n(CC(C)C)c(=O)c3ccccc3n12`, for which the activity change, negative = inhibition in assay [1] was -5.72%; in assay [2], 3.01%; in assay [3], 7.57%; in assay [4] it was -14.4%; in assay [5], 5.71%.

For `CCCN1C(=O)c2c(C(=O)NCc3cccc(Br)c3)ncn2CC1(C)C(=O)NCCC(C)C` (configuration not stated), the activity change, negative = inhibition in assay [1] is -2.3%; in assay [2], 1.38%; in assay [3], 1.34%; in assay [4], -10.1%; in assay [5], -5.04%.

As to `CC(=O)O[C@H]1C(=O)[C@@]2(C)[C@H]([C@H](OC(=O)c3ccccc3)[C@]3(O)C[C@H](OC(=O)[C@H](O)[C@@H](NC(=O)c4ccccc4)c4ccccc4)C(C)=C1C3(C)C)[C@]1(OC(C)=O)CO[C@@H]1C[C@@H]2O`, the activity change, negative = inhibition in assay [1] turned out to be 0%; in assay [3] it was 6.16%.
